From patent US20240325499A1, “FGF21 COMPOUND / GLP-1R AGONIST COMBINATIONS WITH OPTIMIZED ACTIVITY RATIO” (SANOFI, priority 2018, published 2024) come the findings set out here.

B1: 35 (protein)
chain: HGEGTFTSDLSKQLEEEAVQLFIEWLEATGPSSGAPPPSGGGGGGGSGGGGSGGGGSA[sequence of human IgG4 Fc with changes not given]GGGSGSAHPIPDSSPLLQFGGQVRQRYLYTDDACQTEAHLEIREDGTVGGAADQSPESLLQLKALKPGVIQILGVKTSRFLCQRPDGALYGSLHFDPEACSFRELLLEDGYNVYQSEAHGLPLHLPGCKSPHRDPAPRGPARFLPLPGLPPAPPEPPGILAPQPPDVGSSDPLSMVGSQGRSPSYAS
modifications: GLP1(7-36) A8G,V16L,S18K,Y19Q,G22E,Q23E,A25V,K26Q,E27L,A30E,V33E,K34A,G35T,R 36G,insPSSGAPPPS_[19GS]_IgG4 Fc_variant [7GS]_FGF21(His29-Ser209)Q55C,N149C,delP199
B2: 25 (protein)
chain: HGEGTFTSDLSKQLEEEAVQLFIEWLLATGPSSGAPPPSGGGGGGGSGGGGSGGGGSA[sequence of human IgG4 Fc with changes not given]GGGSGSAHPIPDSSPLLQFGGQVRQRYLYTDDACQTEAHLEIREDGTVGGAADQSPESLLQLKALKPGVIQILGVKTSRFLCQRPDGALYGSLHFDPEACSFRELLLEDGYNVYQSEAHGLPLHLPGCKSPHRDPAPRGPARFLPLPGLPPAPPEPPGILAPQPPDVGSSDPLSMVYPSQGRSPSYAS
modifications: GLP1(7-36) A8G,V16L,S18K,Y19Q,G22E,Q23E,A25V,K26Q,E27L,A30E,V33L,K34A,G35T,R 36G,insPSSGAPPPS_[19GS] _IgG4 Fc variant_[7GS]_FGF21(His29-Ser209)Q55C,N149C,G198Y
B3: 28 (protein)
chain: GHGEGTFTSDLSIQLEEEAVRLFIEWLLAGGPSSGAPPPSGGGGGGGSGGGGSGGGGSA[sequence of human IgG4 Fc with changes not given]GGGSGSAHPIPDSSPLLQFGGQVRQRYLYTDDACQTEAHLEIREDGTVGGAADQSPESLLQLKALKPGVIQILGVKTSRFLCQRPDGALYGSLHFDPEACSFRELLLEDGYNVYQSEAHGLPLHLPGCKSPHRDPAPRGPARFLPLPGLPPAPPEPPGILAPQPPDVGSSDPLSMVGSQGRSPSYAS
modifications: GLP1(7-36) insG,A8G,V16L,S18I,Y19Q,G22E,Q23E,A25V,K26R,E27L,A30E,V33L,K34A,R 36G,insPSSGAPPPS_[19GS] _IgG4 Fc_variant [7GS]_FGF21(His29-Ser209)Q55C,N149C,delP199
B4: 34 (protein)
chain: GHGEGTFTSDLSKQLEEERVQEFIEWLVKGRPSSGAPPPSGGGGGGGSGGGGSGGGGSA[sequence of human IgG4 Fc with changes not given]GGGSGSAHPIPDSSPLLQFGGQVRQRYLYTDDACQTEAHLEIREDGTVGGAADQSPESLLQLKALKPGVIQILGVKTSRFLCQRPDGALYGSLHFDPEACSFRELLLEDGYNVYQSEAHGLPLHLPGCKSPHRDPAPRGPARFLPLPGLPPAPPEPPGILAPQPPDVGSSDPLSMVGSQGRSPSYAS
modifications: GLP1(7-36) insG,A8G,V16L,S18K,Y19Q,G22E,Q23E,A24R,A25V,K26Q,A30E,insPSSGAPPP S_[19GS]_IgG4 Fc_variant [7GS]_FGF21(His29-Ser209)Q55C,N149C,delP199
B5: 29 (protein)
chain: GHGEGTFTSDLSIQLEEEAVRLFIEWLLATGPSSGAPPPSGGGGGGGSGGGGSGGGGSA[sequence of human IgG4 Fc with changes not given]GGGSGSAHPIPDSSPLLQFGGQVRQRYLYTDDACQTEAHLEIREDGTVGGAADQSPESLLQLKALKPGVIQILGVKTSRFLCQRPDGALYGSLHFDPEACSFRELLLEDGYNVYQSEAHGLPLHLCGNKSPHRDPAPRGPARFLPLPGLPPAPPEPPGILAPQPPDVGSSDPLSMVGSQGRSPSYAS
modifications: GLP1(7-36) insG,A8G,V16L,S18I,Y19Q,G22E,Q23E,A25V,K26R,E27L,A30E,V33L,K34A,G 35T,R36G,insPSSGAPPPS_[19GS]_Ig4G Fc_variant [7GS]_FGF21(His29-Ser209)Q55C,P147C,delP199

For one experiment, the target named is T1, human GLP-1 receptor (Homo sapiens, UniProt P43220).
T1 construct: expressed in transfected cells; host or cells: HEK-293 cell line
T1 sequence (P43220 24-463): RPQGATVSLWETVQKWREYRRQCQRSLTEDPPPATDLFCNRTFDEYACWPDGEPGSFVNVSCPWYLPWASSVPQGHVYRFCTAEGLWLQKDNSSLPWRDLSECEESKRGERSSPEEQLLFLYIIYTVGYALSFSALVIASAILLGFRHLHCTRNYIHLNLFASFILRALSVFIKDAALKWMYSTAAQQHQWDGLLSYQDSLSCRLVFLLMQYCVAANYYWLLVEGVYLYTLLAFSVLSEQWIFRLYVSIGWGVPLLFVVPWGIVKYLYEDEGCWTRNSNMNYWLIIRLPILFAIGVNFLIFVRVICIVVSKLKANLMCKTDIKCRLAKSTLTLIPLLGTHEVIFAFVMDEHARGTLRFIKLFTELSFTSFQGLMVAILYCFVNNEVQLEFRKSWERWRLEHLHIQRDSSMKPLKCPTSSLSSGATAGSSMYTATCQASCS
Briefly: cAMP response (HTRF) in HEK-293 cell line stably expressing human GLP-1 receptor. Type of experiment: cell-based. Conditions: cAMP response, HEK-293 cells stably expressing human GLP-1 receptor. How it is done: The cAMP content of cells was determined using a kit from Cisbio Corp. (cat. no. 62AM4PEC) based on HTRF (Homogenous Time Resolved Fluorescence). For preparation, cells were split into T175 culture flasks and grown overnight to near confluence in medium (DMEM/10% FBS). Medium was then removed and cells washed with PBS lacking calcium and magnesium, followed by proteinase treatment with accutase (Sigma-Aldrich cat. no. A6964). Detached cells were washed and resuspended in assay buffer (1x HBSS; 20 mM HEPES, 0.1% BSA, 2 mM IBMX) and cellular density determined. They were then diluted to 4×10^5 cells/mL and 25 μL-aliquots dispensed into the wells of 96-well plates. For measurement, 25 μL of test compound in assay buffer was added to the wells, followed by incubation for 30 minutes at room temperature. After addition of HTRF reagents diluted in lysis buffer (kit components), the plates were incubated for 1 h, followed by measurement of the fluorescence ratio at 665/620 nm.
B1 came in with an EC50 of 0.134 nM.

Take B2: the EC50 worked out at 0.0417 nM.

Regarding B3, the EC50 was 0.197 nM.

B4 yielded an EC50 of 0.985 nM.

Consider B5, for which a half-maximal response (EC50) required 0.591 nM.

The same experiment, now with this note: ratio X = activity X-fold reduced versus native GLP-1(7-36); HEK-293, cAMP.
Turning to B1, the “Ratio GLP-1R agonistic activity: native GLP-1(7-36)/tested GLP-1R agonist” value (shortened to “Ratio GLP-1R agonistic activity”) is on record as 174.1.

As to B2, the “Ratio GLP-1R agonistic activity” value came out at 54.1.

B3: the “Ratio GLP-1R agonistic activity” value stood at 256.4.

In the case of B4, the “Ratio GLP-1R agonistic activity” value turned out to be 1279.0.

For B5, the “Ratio GLP-1R agonistic activity” value came out at 767.8.
